The full ranking holds about 16,000 sequences; the median of “Z-score” is about -0.37, and the highest 2% start at about 3.2. The list shows a part of the results.
system: RBM10 RRM1-ZnF (GST-tagged construct); assay: RNAcompete 7-mer binding Z-score; higher = stronger binding preference
In short: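 Each heptamer motif was given a one-sided Z-score for enrichment across the probes that contained it. GST-tagged RBM10 constructs (20 pmol) were combined with 1.5 nmol of a designed pool of 241 399 RNAs of up to 41 nt, transcribed from microarray-derived DNA templates. Binding took place in 1 ml Hepes pH 7.8 buffer containing KCl, NaCl, glycerol, DTT, BSA and glutathione Sepharose beads for 30 min at 4°C. After four 2-min washes at 4°C, bound RNA was identified by microarray hybridisation.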

Row | Sequence | RNAcompete 7-mer binding Z-score
1 | UAAUUUA | -0.655
2 | GCUUAAG | -0.158
3 | AUCCGAU | -0.717
4 | CAUCUUG | -0.88
5 | CUUGAGC | -0.844
6 | ACAGUUG | -0.123
7 | UUCGGGU | 0.988
8 | AGCAUAC | -0.418
9 | UCGAUCU | -0.571
10 | CCUUUCU | -0.88
11 | CGGAGGA | 1.65
12 | AUUGAAU | -0.0804
13 | AACCGGC | -0.6
14 | GGUCCAU | -0.519
15 | UCGCGCA | -0.578
16 | GCAGUUA | -0.0902
17 | GGUGCCA | 0.725
18 | CGGGUUC | 0.777
19 | AAGAGGG | 2.96
20 | UGGAGCG | 2.91
21 | GGUGAAU | 1.48
22 | GACAGCG | 0.183
23 | AUAUAAU | -0.285
24 | AGCGUCA | -0.353

Row | Sequence | RNAcompete 7-mer binding Z-score
25 | GGGAUCA | 1.78
26 | CCGGCUC | -0.581
27 | CGGUAAA | 0.29
28 | GAGAAUA | 0.634
29 | CAGAGCG | 0.595
30 | UGCUAGG | 0.602
31 | UUUAGAA | -0.548
32 | CGUAUCG | -0.539
33 | UGUGCGG | 1.66
34 | GGGAAUG | 3.93
35 | UUAUCCC | -0.896
36 | AAAAUCU | -0.552
37 | CUUAUUU | -0.854
38 | UUGGACG | 1.06
39 | CAAGACU | -0.428
40 | AAGUUAA | 0.102
41 | AUGUCAU | -0.399
42 | CGGCGUG | 0.839
43 | UGGGCAC | 1.53
44 | CCUCUCA | -0.766
45 | CCUAUAC | -0.714
46 | ACGUAUA | -0.201
47 | GCUUACC | -0.604
48 | AUCGAAC | -0.305

Row | Sequence | RNAcompete 7-mer binding Z-score
49 | AACCCAU | -0.841
50 | GCUGUCA | -0.49
51 | UCACUGC | -0.772
52 | GAACGGG | 4.25
53 | AGAGGAU | 1.4
54 | CCGCACC | -0.509
55 | GUGAACU | 0.0853
56 | ACCCAUA | -0.886
57 | UAGCUAG | -0.123
58 | UGUGAGC | 0.212
59 | GACAGCC | -0.539
60 | CAACGCA | -0.607
61 | UCGUAAC | -0.62
62 | GUGCUAU | -0.256
63 | CUAAGCG | -0.389
64 | CUCUCUC | -0.629
65 | GAGUUGG | 3.12
66 | AGCCAUG | -0.5
67 | AAAGGAA | 3.32
68 | UCAGGCU | -0.113
69 | AAUCUAA | -0.617
70 | CUUUGAG | -0.496
71 | GUGCGAC | 0.407
72 | GCGGAUG | 2.2

Row | Sequence | RNAcompete 7-mer binding Z-score
73 | AACACCG | -0.236
74 | CGGAUGG | 2.38
75 | UACUUUA | -0.837
76 | UCCGCUG | -0.61
77 | GCCUCUG | -0.75
78 | ACAUAUU | -0.649
79 | CUCCUGU | -0.737
80 | CCCGUGG | 0.644
81 | GAAUAAU | -0.279
82 | CAGAGGU | 1.25
83 | GUACACG | 0.358
84 | CGUUGGU | 0.576
85 | GGUUUUC | 0.462
86 | AGCUCUU | -0.782
87 | AGUUCGG | -0.00571
88 | GCUUGCU | -0.733
89 | CACGUGA | 0.0528
90 | CGCUUGA | -0.675
91 | CAUAGUG | 0.121
92 | GCGUCCC | -0.422
93 | CGGGUUA | 1.95
94 | AUUCGAG | -0.266
95 | AGUCACU | -0.441
96 | GACGAGC | 0.043

Row | Sequence | RNAcompete 7-mer binding Z-score
97 | GCGCCAA | -0.539
98 | UACAGCU | -0.707
99 | ACGUUUU | -0.834
100 | GGAUUAA | 0.807
101 | GGCAGUA | 1.1
102 | ACUGGCA | -0.178
103 | AAAGGCG | 1.21
104 | UUCCGGU | -0.587
105 | GUGGCAC | 0.907
106 | GACUGCA | -0.389
107 | AAUGGGU | 3.89
108 | CCGCUCG | -0.617
109 | UCCGGGU | 0.716
110 | ACCGGCC | -0.672
111 | ACGAUGC | -0.412
112 | UGUUAGG | 0.797
113 | ACCUAAG | -0.652
114 | UCUCAAC | -0.672
115 | GUAAAGG | 2.92
116 | AGCCAAC | -0.35
117 | ACGAGAU | -0.201
118 | ACGAUAA | -0.243
119 | UUUAAAA | -0.542
120 | AUUAGAU | -0.24

Row | Sequence | RNAcompete 7-mer binding Z-score
121 | UAUCAAA | -0.532
122 | AGUCCGC | -0.62
123 | GAAUUAU | -0.181
124 | UCUAAGC | -0.711
125 | ACCAUGG | 0.0788
126 | GGCCACC | -0.409
127 | AUAUCGA | -0.435
128 | GUGGAUA | 2.51
129 | CAUGUCU | -0.844
130 | UUGGCGA | 0.605
131 | CGUGUUA | -0.652
132 | AUACACA | -0.483
133 | GGGGUCG | 2.62
134 | CGUGUAC | -0.295
135 | GAGGGUA | 3.95
136 | GUACCUU | -0.73
137 | UAAUGGA | 1.93
138 | CGGGUGC | 1.85
139 | UGCCCUC | -0.617
140 | CGCCUCU | -0.802
141 | CUACCCG | -0.737
142 | GAUGAUG | 1.79
143 | AACUAUU | -0.707
144 | GAUCUCU | -0.876

Row | Sequence | RNAcompete 7-mer binding Z-score
145 | ACACUAC | -0.629
146 | CCCCAAG | -0.275
147 | GAUUAAU | -0.246
148 | UCUAGAA | -0.584
149 | CUAUGCG | -0.483
150 | GGAGCAU | 1.24
151 | AUAGGUA | 1.89
152 | GAAUACU | -0.389
153 | UAAUCCG | -0.578
154 | ACUUACA | -0.629
155 | AGCGAAG | 0.875
156 | AGCCUGU | -0.668
157 | CAUUGAG | -0.106
158 | CGCGUCC | -0.578
159 | AGCUAGU | -0.217
160 | CGUUGGA | 0.446
161 | CCUGUUA | -0.896
162 | GGACGAC | 1.03
163 | GCAAGGA | 2.4
164 | GCCUCAC | -0.581
165 | AAGGGAG | 3.99
166 | CCCGGGG | 0.878
167 | GAGAGUG | 1.71
168 | GGAUCGU | 0.394

Row | Sequence | RNAcompete 7-mer binding Z-score
169 | GACGUCC | -0.766
170 | UAUGUCG | -0.34
171 | GACACUG | -0.318
172 | AUGCAUG | -0.0512
173 | CUAACUC | -0.733
174 | GCGUCUA | -0.454
175 | CUCCAUU | -0.818
176 | UAUUCCU | -0.73
177 | GGUAAGC | 1.81
178 | UUCAAAC | -0.828
179 | GGUACUA | 0.641
180 | CGUGACU | -0.311
181 | UCAUCUA | -0.737
182 | AUCAACC | -0.759
183 | UAAUGUG | 0.706
184 | UUGGAAA | 0.797
185 | UGAGGGG | 3.64
186 | GGUGGAG | 4.02
187 | UCUUAGG | -0.327
188 | UUAUCCU | -0.867
189 | UCGCGUG | -0.022
190 | GUGGCGG | 3.26
191 | UCCGCGA | -0.688
192 | CUUCGGC | -0.759

Row | Sequence | RNAcompete 7-mer binding Z-score
193 | UAGGGAA | 3.15
194 | GAAGGGC | 2.98
195 | GUAACUG | 0.15
196 | GCACGUG | 0.17
197 | CGCGGGU | 1.84
198 | AGGUCUU | -0.552
199 | GGUUAAC | 1.13
200 | CUUCCUG | -0.711
201 | GACCAUA | -0.867
202 | ACGAGGG | 3.35
203 | CGGCCAC | -0.275
204 | ACACAAU | -0.642
205 | UUCGCCU | -0.811
206 | UAUGGGC | 1.47
207 | GUGUACU | -0.295
208 | GAACGAG | 0.923
209 | UCCAACA | -0.73
210 | CUAGACU | -0.578
211 | UGCGUGG | 1.54
212 | GAUCGCC | -0.795
213 | AAUCUCG | -0.675
214 | CCCAAGU | -0.496
215 | UGUACAA | -0.269
216 | UGAAUUC | -0.675

Row | Sequence | RNAcompete 7-mer binding Z-score
217 | UUAUCCG | -0.655
218 | UUUUACU | -0.808
219 | CUGCACA | -0.435
220 | ACGGUUA | 0.79
221 | AAGUAGA | 0.725
222 | GGCGGAU | 1.75
223 | UCACGUU | -0.779
224 | CAACACA | -0.295
225 | CUGGGCU | 0.511
226 | UGACUCG | -0.487
227 | CCAGACC | -0.642
228 | CAAAAAG | -0.363
229 | ACGGCUC | -0.386
230 | UGGGACA | 2.09
231 | GGCCAGC | -0.119
232 | GCUAGCA | -0.269
233 | CGAAGGU | 1.5
234 | UGUGGCU | 0.368

— the supplement of paper PMC5499739
